Here are results for two compounds from the CheMixHub viscosity set.

The conditions of this series: 101 kPa.

± gives the uncertainty stated by the source. A number of entries come with more than one value. This list holds those alone. The source may hold further records. The records of an entry repeat one measurement (runs, samples, wells, individuals or studies). What stands in brackets tells the records apart. The letters are not those of the source and start again with each entry.

Broadly, the viscosity is the internal friction of a fluid under shear. A high value points to a thick fluid.

On to `O=C1CCCC1`, for which the viscosity (303.15 K) is 0.985 ± 0.049 mPa·s [study A] and 0.996 ± 0.037 mPa·s [study B] and 0.989 ± 0.009 mPa·s [study C] and 0.998 ± 0.013 mPa·s [study D] and 0.998 ± 0.013 mPa·s [study E].
For `CC(O)CO` (stereo not given), the viscosity is 55.9 ± 1.1 mPa·s [study A] and 59.9 ± 0.16 mPa·s [study B] and 49.25 ± 0.27 mPa·s [study C] and 58.75 ± 0.25 mPa·s [study D] (293.15 K); 45.33 ± 1 mPa·s [study A] and 41.74 ± 1.3 mPa·s [study B] and 40.09 ± 0.22 mPa·s [study C] and 44.45 ± 0.9 mPa·s [study D] and 43.45 ± 0.24 mPa·s [study E] (298.15 K); 25.14 ± 0.71 mPa·s [study A] and 24.9 ± 0.5 mPa·s [study B] and 26.2 ± 0.62 mPa·s [study C] and 27.25 ± 0.15 mPa·s [study D] (308.15 K); 15.17 ± 0.9 mPa·s [study A] and 14.96 ± 0.43 mPa·s [study B] and 15.4 ± 0.3 mPa·s [study C] and 16.15 ± 0.4 mPa·s [study D] and 17.04 ± 0.097 mPa·s [study E] (318.15 K).
